Experimental data from patent publication US20240092908A1 (ZHEJIANG DOER BIOLOGICS, published 2024).

Tests used:
[1] = molecular target: T1, fusion protein hPD1-HSA composed of a PD1 extracellular domain sequence and a human serum albumin sequence (human); assay: ELISA, hPD1-HSA coated 200 ng/well, HRP anti-human IgG Fc
T1 construct: PD-1 extracellular domain fused to HSA; also called Human hPD1-HSA; human PD-1

[2] = molecular target: T1, fusion protein hPD1-HSA composed of a …; assay: competitive ELISA, hPD1-HSA coated; competitor bio-hPDL1-FC, HRP-Streptavidin

| Binder | EC50 [1] [pM] | IC50 [2] [pM] |
| --- | --- | --- |
| Anti-PD1-1A4-Fc (Fc fusion) QVQLVESGGGLVQPGGSLNLSCVASGNVFIIDVMAWYRQAPGKQRELVAQIINGDAKYYVDSVKGRFTISRDNTKTTLYLQMNSLKPDDTAIYYCSAEKFNPYRDSTNFWGQGTQVTVSS[human IgG4 Fc with S228P (EU numbers) not written out] | 58 | 1450 |
| Anti-PD1-2C4-Fc (Fc fusion) QVQLVESGGGLVRPGGSLRLSCAASGSVFIIDVMAWYRQAPGKQRELVAQIISGDHAYYADSVKGRFTISRDDTKTTLYLQMNSLKPDDTAVYYCSAEKFNPYRDSTYFWGQGTQVTVSS[human IgG4 Fc with S228P (EU numbers) not written out] | 67 | 1550 |
| Anti-PD1-hu1D3V1-Fc (Fc fusion) QVQLVESGGGLVQPGGSLRLSCAASGSVFIIDVMAWYRQAPGKQRELVAQIINGGATYYADSVKGRFTISRDNSKNTLYLQMNSLRAEDTAVYYCSAEKFNPYRDSTHFWGQGTLVTVSS[human IgG4 Fc with S228P (EU numbers) not written out] | 61 | 1100 |
| Anti-PD1-1D3-Fc (Fc fusion) QVQLVESGGGLVQPGGSLNLSCVASGSVFIIDVMAWYRQAPGKQRELVAQIINGGATYYADSVKGRFTISRDDTKTTLYLQMNSLKPDDTAVYYCSAEKFNPYRDSTHFWGQGTQVTVSS[human IgG4 Fc with S228P (EU numbers) not written out] | 56 | 1490 |
| Anti-PD1-hu1A9V1-Fc (Fc fusion) QVQLVESGGGLVQPGGSLRLSCAASGNVFIIDVMAWYRQAPGKQRELVAQIINGGATYYADSVKGRFTISRDNSKNTLYLQMNSLRAEDTAVYYCSAEKFNPYRDSTHFWGQGTLVTVSS[human IgG4 Fc with S228P (EU numbers) not written out] | 58 | 955 |
| Anti-PD1-hu1A4V3-Fc (Fc fusion) QVQLVESGGGLVQPGGSLRLSCAASGNVFIIDVMAWYRQAPGKGLELVAQIINGDAKYYADSVKGRFTISRDNSKNTLYLQMNSLRAEDTAVYYCSAEKFNPYRDSTNFWGQGTLVTVSS[human IgG4 Fc with S228P (EU numbers) not written out] | 48 | 2430 |
| Anti-PD1-hu1A4V1-Fc (Fc fusion) QVQLVESGGGLVQPGGSLRLSCAASGNVFIIDVMAWYRQAPGKQRELVAQIINGDAKYYADSVKGRFTISRDNSKNTLYLQMNSLRAEDTAVYYCSAEKFNPYRDSTNFWGQGTLVTVSS[human IgG4 Fc with S228P (EU numbers) not written out] | 63 | 965 |
| Anti-PD1-1H1-Fc (Fc fusion) QVQLVESGGGLVQPGGSLNLSCVASGSVFIIDVMAWYRQAPGKQRELVAQIINGGASYYADSVKGRFTISRDNTKTTLFLQMNSLKPADTAVYYCNAEKFNPYRDSTNFWGQGTQVTVSS[human IgG4 Fc with S228P (EU numbers) not written out] | 51 | 1540 |
| Anti-PD1-hu1A9V3-Fc (Fc fusion) QVQLVESGGGLVQPGGSLRLSCAASGNVFIIDVMAWYRQAPGKGLELVAQIINGGATYYADSVKGRFTISRDNSKNTLYLQMNSLRAEDTAVYYCSAEKFNPYRDSTHFWGQGTLVTVSS[human IgG4 Fc with S228P (EU numbers) not written out] | 58 | 2840 |
| Anti-PD1-2D9-Fc (Fc fusion) QVQLVESGGGLVQPGGSLRLSCAASGSVFIIDVMAWYRQAPGKQRELVAQIINGDAKYYADSVKGRFTISRDNTKTTLYLQMNSLKPDDTAVYYCSAEQFNPYRDSTYFWGQGTQVTVSS[human IgG4 Fc with S228P (EU numbers) not written out] | 78 | 1440 |
| Anti-PD1-1A9-Fc (Fc fusion) QVQLVESGGGLVQPGGSLNLSCVASGNVFIIDVMAWYRQAPGKQRELVAQIINGGATYYADSVKGRFTISRDDTKTTLNLQMNSLKPDDTAVYYCSAEKFNPYRDSTHFWGQGTQVTVSA[human IgG4 Fc with S228P (EU numbers) not written out] | 58 | 1550 |

More lines, now with the values ahead:

| EC50 [1] [pM] | IC50 [2] [pM] | Binder |
| --- | --- | --- |
| 55 | 1120 | Anti-PD1-hu1H1V1-Fc (Fc fusion) QVQLVESGGGLVQPGGSLRLSCAASGSVFIIDVMAWYRQAPGKQRELVAQIINGGASYYADSVKGRFTISRDNSKNTLYLQMNSLRAEDTAVYYCNAEKFNPYRDSTNFWGQGTLVTVSSGGGGSGGGGS[human IgG4 Fc with S228P (EU numbers) not written out] |
| 60 | 1120 | Anti-PD1-hu1H1V3-Fc (Fc fusion) QVQLVESGGGLVQPGGSLRLSCAASGSVFIIDVMAWYRQAPGKGLELVAQIINGGASYYADSVKGRFTISRDNSKNTLYLQMNSLRAEDTAVYYCNAEKFNPYRDSTNFWGQGTLVTVSS[human IgG4 Fc with S228P (EU numbers) not written out] |
| 55 | 1190 | Anti-PD1-hu2C4V3-Fc (Fc fusion) QVQLVESGGGLVQPGGSLRLSCAASGSVFIIDVMAWYRQAPGKGLELVAQIISGDHAYYADSVKGRFTISRDNSKNTLYLQMNSLRAEDTAVYYCSAEKFNPYRDSTYFWGQGTLVTVSS[human IgG4 Fc with S228P (EU numbers) not written out] |
| 58 | 878 | Anti-PD1-hu1D3V3-Fc (Fc fusion) QVQLVESGGGLVQPGGSLRLSCAASGSVFIIDVMAWYRQAPGKGLELVAQIINGGATYYADSVKGRFTISRDNSKNTLYLQMNSLRAEDTAVYYCSAEKFNPYRDSTHFWGQGTLVTVSS[human IgG4 Fc with S228P (EU numbers) not written out] |
| 58 | 1210 | Anti-PD1-hu2C4V1-Fc (Fc fusion) QVQLVESGGGLVQPGGSLRLSCAASGSVFIIDVMAWYRQAPGKQRELVAQIISGDHAYYADSVKGRFTISRDNSKNTLYLQMNSLRAEDTAVYYCSAEKFNPYRDSTYFWGQGTLVTVSS[human IgG4 Fc with S228P (EU numbers) not written out] |
| 62 | 1030 | Anti-PD1-hu2D9V1-Fc (Fc fusion) QVQLVESGGGLVQPGGSLRLSCAASGSVFIIDVMAWYRQAPGKQRELVAQIINGDAKYYADSVKGRFTISRDNSKNTLYLQMNSLRAEDTAVYYCSAEQFNPYRDSTYFWGQGTLVTVSS[human IgG4 Fc with S228P (EU numbers) not written out] |
| 58 | 1150 | Anti-PD1-hu2D9V3-Fc (Fc fusion) QVQLVESGGGLVQPGGSLRLSCAASGSVFIIDVMAWYRQAPGKGLELVAQIINGDAKYYADSVKGRFTISRDNSKNTLYLQMNSLRAEDTAVYYCSAEQFNPYRDSTYFWGQGTLVTVSS[human IgG4 Fc with S228P (EU numbers) not written out] |
